# From the supplement of paper PMC3334620
# Whole data set: some 33,000 sequences, median “E-score (-0.5 to 0.5)” near -0.04, cut for the highest 2% near 0.36. The list shows a part of the results.
# Target: T1, Hmlalpha2 (UniProt P0CY09)
# T1 sequence: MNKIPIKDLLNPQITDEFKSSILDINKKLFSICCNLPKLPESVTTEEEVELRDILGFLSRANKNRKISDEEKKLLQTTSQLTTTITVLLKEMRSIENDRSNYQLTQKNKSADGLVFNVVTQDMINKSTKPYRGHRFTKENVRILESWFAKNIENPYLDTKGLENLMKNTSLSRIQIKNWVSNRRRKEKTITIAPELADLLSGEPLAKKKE
# Test: PBM E-score (8-mer binding enrichment) (E-score (-0.5 to 0.5)); higher = stronger / more preferred TF binding; most listed sequences are background and not binding sites
# Settings: protein concentration: 200 nM; construct: GST-full length
# How it was run: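 Using PURExpress in vitro transcription/translation, GST-tagged yeast transcription factors were made in full-length or DNA-binding-domain form. These were applied at about 100-200 nM to double-stranded universal all-10-mer Agilent arrays, and bound protein was detected with fluorescent anti-GST. Scans were normalised with masliner before the Universal PBM Analysis Suite assigned E-scores to ungapped eight-base words pooled with their reverse complements.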
row,Sequence,PBM E-score
1,AACCTGAA,-0.225
2,GCCGAACA,0.00108
3,CCAACTAG,0.0799
4,TTCAACAA,0.363
5,ACACAGGG,0.256
6,CCAATTGC,-0.215
7,GGGCTTGA,-0.071
8,GGGGATCA,-0.314
9,AAAGTCCC,-0.198
10,ACTTCGGG,-0.203
11,CTGTCTTC,-0.202
12,CAAAGCAC,-0.0286
13,ATATGGAT,0.0348
14,ACCTTGCT,-0.0655
15,ACAGCTAG,-0.183
16,ATCCACTG,-0.202
17,TAGCGGAA,-0.251
18,CGGCACGC,-0.22
19,ACTTTACG,0.262
20,AAAGTTCA,0.045
21,TGCCAAAA,0.00486
22,GTATTAAC,0.346
23,CGTGGGAA,-0.231
24,GATAGAGC,-0.115
25,CCACTAAC,0.0496

row,Sequence,PBM E-score
1,TGCATGAA,0.131
2,CACCGTCG,-0.14
3,CTTGCATA,-0.0145
4,AGCAGATA,-0.1
5,GACTCAAC,0.167
6,ATTTTGAA,0.0904
7,ATTTACGG,0.12
8,GATACAAC,0.148
9,ACCACTAT,-0.112
10,AAAGAGGT,0.00806
11,ACTGAGGA,-0.279
12,AAGGGATT,-0.165
13,ACCCAGCG,-0.0999
14,ATTTAGCC,0.0155
15,CCATTTAC,0.307
16,CACATCCC,-0.0137
17,GGCGATAA,-0.299
18,ATGATGAA,0.108
19,AGGCCGAA,-0.131
20,GACATTAC,0.246
21,AGCCGTGG,-0.245
22,CTCTGGTA,-0.0526
23,GACGAGGA,-0.184
24,ACAAGGTG,0.245
25,ACCAACTG,0.00286

row,Sequence,PBM E-score
1,TATCGCGA,-0.102
2,AGATCGTC,-0.198
3,CATAGTGG,-0.167
4,AGAAGCAG,-0.144
5,CGTAATCC,0.309
6,GAGAGACA,-0.114
7,ACTGTACC,-0.103
8,AGCCGCAG,-0.285
9,GTCTGCAA,-0.155
10,AGCGACCC,-0.165
11,ATTGTCAG,0.166
12,AGGGGATC,-0.286
13,AGATAAGG,-0.0762
14,ACAAGCCT,0.227
15,AGGTATAT,0.0948
16,GGTAGCTA,-0.00113
17,TAGTGACA,0.125
18,CTAAGGTA,-0.0248
19,ACTTGTCC,0.0142
20,ATTACATC,0.445
21,ATTAGCGA,-0.00398
22,CACTGGCA,-0.0335
23,CGGAGGCC,-0.334
24,CTATTGAA,-0.00741
25,ATATTCTG,0.00643

row,Sequence,PBM E-score
1,TCATACAA,0.0397
2,CCAGCTCG,-0.181
3,CTTACGCA,0.341
4,AATACGTC,0.226
5,AAGCATTC,-0.00091
6,ATTCCGAG,-0.116
7,CGGGGACC,-0.311
8,TTAAGTAA,0.213
9,CTAAGGAC,-0.106
10,GACAAAAC,0.156
11,ATTTATGC,0.0193
12,CAGGTTCG,-0.125
13,AATCGTCT,0.00339
14,AGACTACA,0.214
15,ACGCTTAG,0.0769
16,AGGCGTCA,-0.143
17,AGTGTATG,0.107
18,AGTGCCAG,-0.0844
19,ACGGGCGA,-0.261
20,ACGTAGTA,0.232
21,ACTGATGG,-0.0982
22,ACAGGTGC,-0.0992
23,CACGAAGA,0.11
24,ATGTCATC,0.0953
25,CAACAGCC,0.0886

row,Sequence,PBM E-score
1,CCGGTACA,0.142
2,ACCGTGAA,-0.0846
3,AGCCTACA,0.134
4,AGGGCATG,0.128
5,GGGCCTGA,-0.262
6,CACTCGCC,-0.169
7,GGGGCGCA,-0.136
8,ACACGCTC,0.399
9,CAGACTCG,-0.19
10,ACATTGAA,0.251
11,ATCTAGCC,-0.297
12,ACCTCAGC,-0.0793
13,ATAACCTA,0.125
14,CCGCACCG,-0.0442
15,ATTAGCTC,0.0366
16,CTTGCCGA,-0.0654
17,AATATGAG,0.0751
18,ATCTTCAA,0.119
19,AAGGAATG,-0.0711
20,CGTACAGA,0.11
21,GACGAATA,-0.00662
22,TCCTCGCA,-0.204
23,CAAAGATG,-0.0782
24,CCATCCTC,-0.107
25,AGTCCTGG,-0.302

row,Sequence,PBM E-score
1,ACCCGTCG,-0.181
2,AGGAAAGA,-0.198
3,AACTTTGA,0.0867
4,AGCACTCG,-0.295
5,CGCATCTC,-0.072
6,CCACTTCC,0.00834
7,ACGGATAA,0.0652
8,ATCAAGAC,0.107
9,AGTTTGAC,0.155
10,GACCCATC,-0.13
11,GAAACACA,0.252
12,CAGCGACA,-0.0988
13,CGCGGAAA,-0.0502
14,CGCAGAAC,0.157
15,CTGCTGCA,-0.131
16,CATTTCGG,-0.0384
17,CTCTACGA,0.094
18,TACATAGA,0.427
19,AGCCTCCG,-0.164
20,CCACGCTA,-0.17
21,CAGTGTCA,0.124
22,ACAGGTTG,0.0587
23,CCGTTTCA,-0.181
24,GATACTAA,0.0853
25,AAGTCATA,-0.0514

row,Sequence,PBM E-score
1,GATTGGAA,-0.207
2,AACCGGCG,-0.012
3,GTCTCACA,-0.0902
4,AGAGGGGA,-0.29
5,ATGGAAAG,0.0245
6,GCAACCGC,-0.014
7,ACGCAAGA,0.157
8,TCCTCAAA,0.174
9,CGCTCCCC,-0.254
10,AGGGTAAT,-0.0496
11,ACGATTCA,-0.0549
12,GGCCGACC,-0.28
13,TATGCAAA,0.213
14,AAATGCTA,0.0509
15,AATGCATC,0.0637
16,AACGGGCA,-0.25
17,AGAATATA,0.0401
18,CTCACTAC,0.00421
19,AAAAAGCT,-0.181
20,AATTAGAG,0.079
21,CCTCGTCA,-0.0356
22,ACTCAGTG,-0.156
